# From article PMC10726135
# The other results are listed elsewhere or left out. At the low end of the ranking, values are background and their order means little. Measured with an extract: partners may take part in the binding.
# Target: T1, HNF4alpha8 (COS-7 nuclear extract) (UniProt P41235-5)
# T1 sequence: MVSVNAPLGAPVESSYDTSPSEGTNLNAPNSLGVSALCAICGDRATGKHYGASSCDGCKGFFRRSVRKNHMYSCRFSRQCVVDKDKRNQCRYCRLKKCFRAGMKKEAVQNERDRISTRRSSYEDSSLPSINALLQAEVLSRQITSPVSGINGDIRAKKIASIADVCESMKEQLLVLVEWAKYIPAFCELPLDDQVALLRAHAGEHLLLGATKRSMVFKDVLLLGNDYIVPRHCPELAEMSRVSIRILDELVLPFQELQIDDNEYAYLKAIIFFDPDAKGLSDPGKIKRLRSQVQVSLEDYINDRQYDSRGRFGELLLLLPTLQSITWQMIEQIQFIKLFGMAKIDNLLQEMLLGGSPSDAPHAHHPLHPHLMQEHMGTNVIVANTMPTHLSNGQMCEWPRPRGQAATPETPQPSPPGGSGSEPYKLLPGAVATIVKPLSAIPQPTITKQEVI
# Assay: protein-binding microarray
# Conditions: COS-7 nuclear extract on double-stranded Agilent 4x180k PBM; binding buffer, salt, pH and temperature not given; high values mean tight binding; double strand, one strand shown; sequences stand for … in …GCCTAGGGAGATTAGAGTATCGGTCGA
row,Sequence,binding signal (log2 normalized intensity)
1,CCCAGAAGAATGGGCAGAAGTAGGATAAGG,-1.49
2,TGTTCTAATGAGGCCACTCCTGATAGCTAG,-1.22
3,ACAAACACAGAAGTGGACCTTCACCAGATA,2.46
4,GTGAGGGAGGAGACTTTGACCTCTGCTAGG,6.12
5,TTCTTGGTGGAAGTGGTGATTTCGTTGAAA,1.23
6,TTGTGGAGGATGGGAAGTCCAAAGTCTGCA,4.82
7,TCAGATGAACTTTGCCTTAGGCCATTGTCC,3.98
8,GGGGGCCAGTTCACTCAGTCCACATGGTGT,0.389
9,AGATATCAGAAATGCATGAGTGACCTTTAT,5.66
10,CATTCCCCAGGCAATCTTCCAGTCCACAGT,1.24
11,AATTGGGGGAGAGTTTAAGGTTGTACTTTG,3.69
12,AGATGGAATGTTGTGTCTTCCAGTTCATTT,1.64
13,CTACAGTCCTGCCACATCCCCCACACCGAG,4.27
14,GGGAAGGCAGGTCTCTCTCATTCACACCCT,-1.29
15,GTTAAAGTTGCCTGATGACAACTGAATGTG,-0.261
16,TTGCAGACCTTGGTCAAAGTGACACATTCC,0.772
17,GTCATCAGATAGATGGTCAGTGAACTGTGG,1.96
18,TCTTGGACTCTTGGACTCCCTGAAGAAACA,4.67
19,AAGGGCTGAGGTTAAAGTCCACATTCTTTA,6.82
20,TGGAATGCTTTTCTAGAACCAGGAATCCTA,-1.25
21,CTTGCTGCATTCCCCCACCTACTGTCTCCT,3.25
22,CAAGTTATCTCGGGGTGGCATGTATCTGAT,1.21
23,GTAACCTCAAAGGAGGTCAGAACTGTGGAC,1.78
24,CTTCTTGGATGCCCTTCCCTAACCCTTCAA,2.61
25,GGCCTCTCCTTCATCTTCAAAGCCAGCAAT,-1.26

row,Sequence,binding signal (log2 normalized intensity)
1,TTTATCCAGTTCTGTGTACAAAGCCCCATA,3.39
2,TGGTTTTTCTGGGACCAAGGGTCAGTTCAT,4.47
3,AAATGTAATCAGCAAGTTTTATATGAAAAC,0.415
4,GGACTCCAAGCCCCAAAAACTTGGACTCTA,5.81
5,TTCAAGAAGACCTTTGCTCCACGTTCATAT,4.16
6,CCCCACTTCCTGACTTGGCCTGAACCAGTT,0.602
7,TACCCAACTCATCAGTATTTGATGGTACAA,1.31
8,TATTGGATTCCCCAATGCAGTACTATGCAA,0.782
9,CTTAAAGGCCTGTGTCGATGTTAACGCTAA,-1.15
10,CAGGTGGGAGGGGTGGACTTTGGCTTTTCC,6.31
11,GAGCCTGGGGTTCAGCCACACCAAGTCTGG,-1.19
12,TCCCGGGGAGTCCTGGGCGTTGCTCTCCCA,-1.39
13,GGGAGGAGGAGACAAAGGCCGCGCCCGCCC,-1.3
14,TTCCCTTATCTTCTCCCCTGCCAAATCATG,2.53
15,TGGTCAAAGGTCACCAGTGAGCCAAGGTAC,5.3
16,AAACTTCATGGCTTAAAACGACTGATTCTC,-0.496
17,TCCAGATCAAGGATTTTTTCTTGGACTTTG,5.67
18,ATCTTTGCCCTTGAAGATACAGTTATGAAA,1.17
19,GTGCAAAGGCCTTAAAGTGTAAATATTTGA,0.546
20,AAGCAGTCTACACTAGGAGGAGGTCAAAGT,4.84
21,CAGAGCATTGTTTATTGTTGCTGATATAGA,1
22,GAAGGACAAAGATCATAAATGCCTCCCCCT,4.89
23,CAAAACTTTAGGACTTTGAACCTTGGGTCT,7.83
24,CTTTACTTATCCAAAGCTGCTGGGAGGTAG,-0.0834
25,CCTGGTCAAAGTCAACTCCTCCAAGCCACC,0.614

row,Sequence,binding signal (log2 normalized intensity)
1,ATAAAAGATTGCATCTGTTTTTATTTCCCC,1.82
2,AAACTTATCTTGTGACCTTTGACTCATTAT,7.16
3,TCAGGCTGTGGTACGGAATCCAGGCCAACT,-1.12
4,GAACCGTCGTAATGGCTAAGGGCATCTACT,-1.2
5,ATCCAAAGTTCATGGAAAGTTTCACTTTCT,1.67
6,CAAAATTTTAATTAGAACTGTAATTGAGTA,0.247
7,GTTCCGACCTTAGTACTCTGCCATGTGCTA,1.89
8,CAGGAAGTTCCCACAGTCCTTAAGATCCAA,-1.41
9,CCTTATCATCACATGTGCAAGGGCAGCTCC,0.8
10,AGGCTGGGTGATAAGAACACAAAAGCCTCT,-1.36
11,GTTAAGTAACGTGTCAGAGGTCACTCAGCA,3.07
12,TGTGAGTCCAGTTGAATGATGGCGAGTGTG,1.07
13,GTTTAGTTGGAGAGACAGGTAAATCAGTAC,0.128
14,ATGCCAGGAATGCTGAGGAGGGCCTGGGGG,-1.22
15,ACCTCTCCCACCTGAATTATTGTATAGCTT,0.233
16,TCCCATCCCACTAGGTGGCGCTGTTGACCT,4.39
17,CTGGCCTCTGAGATTCGGTGAGGGATTGTT,-0.0778
18,GGGACAAAGGTCACAGGAAAGGGACCAAAG,4.27
19,CATCTCCAGTTCCAAAGTCCAGGTGCTTTC,5.22
20,ACCTCCTGACTAAAGTTCATTGCTTTGAGC,2.32
21,ACCAGGCAAAAATGCCAGGCATTTGCGATA,-1.33
22,GGCTGTGGAGGGCAGTGGATGGGGGCGTTC,0.786
23,CTGGGAGATAAGATAGCACCAGCCCATTAA,-1.39
24,GGGCTCAAAGGTTACCACCCAGGAGTCTGT,3.78
25,TTTGGCTCAGGGCCTCTCCTTCATCTTCAA,-0.738

row,Sequence,binding signal (log2 normalized intensity)
1,CTAGGTGGCGCTGTTGACCTTGAAATGCCA,2.59
2,GGCTGAGCGTGAACACCGGCCCCCTCCCCC,5.76
3,CCACCTCCTCTGAAGCTAGGACAAGGCTCA,-1.36
4,GAGCAATTATGCACCCGTGGTTGATCAAAG,0.509
5,TGAGCTGAGTTCCACAGATAAGGAGGAGAC,-1.36
6,AGGTTATCTCGGGGCTGGCATGTCTCTGGT,0.922
7,TTTTTGACCTGTATCTTGTGGTGACCTCTT,5.13
8,GGTGGACATGGTCCAGTCACAGCAAAAGTA,0.211
9,TTAGGCAAGCAAACTGCAAATACAGGTGAA,-1.25
10,AGCCTCTTGAGTAGCTGGGACTACAGGCAG,-1.27
11,GAAGACAGTTCAAATCCCTTCGGATGACTC,-1.25
12,AAGCCGAACGCTGGGGCAAAGGTTTCCTAA,1.65
13,TGTTTTACCAGGAAGGGCTTTATGACCAGT,1.01
14,AGAGAGATAGCAAAATCAATAAATCACACG,-1.2
15,TGTCCTTTAACCTCCCTGCAGGTCTCTAAA,0.893
16,GATTCCTGCTGAGAGAGCAGGTTGAGTATC,0.114
17,TACCTGATGAAGCAATAGGAATCACACAAC,-1.33
18,ACAGGTGGGGGTAAACATAGCAGAAGACCC,-1.25
19,CAAGGAAATCTGGGAAATGTAGCTTTTAAA,-1.27
20,CTCTCTCTCTCTCACACACACACACACACA,1.83
21,GGATGGGGTGCAAACTCACCTGGAGAAGCA,-1.27
22,TCAACCAGGTTCTCTTTACTGAACGCTGCG,-1.32
23,AGAACCTGGAACCTAGAGGCCTTTCTCTCT,-1.25
24,GCAGGGAGGATATCCCTCCGCCTCCCTCCC,2.76
25,GGCAGGACTCTGTCCTGGGCACTGTCCTAG,0.632

row,Sequence,binding signal (log2 normalized intensity)
1,TGGGTGGGGGAAGTGTGGTCAAGGGTCAGT,4.76
2,GGGACTAGAACTCAGTGTGAACTCAATGCT,-1.05
3,TTTGTGTGGTGAGGAAAAGGAGGAGTTTGA,0.987
4,GAGTTTGGCCCCAGTTCCCATGGACTGGTT,1.18
5,ACTTTCTGACTGGCCTGGGAACCCCAAGTT,0.551
6,TAGGATTAAACACGTTTTATTAGGGGTCAG,4.41
7,CACTCCCTGGAGCAAACTTACTCTGGGGGA,-1.35
8,GCCGTTCAGGGCCACGGGAAAACCTGACTG,-1.36
9,AACACAGAACTATCAAACATTTTTGCAACA,-1.29
10,CCAGCCACGCCCTCTAACCCAGGTTCCCGT,-1.13
11,ACGCCGGCCAATCCGGCTGGCAGCCGATTG,-1.34
12,CTGACCTTTGCCCCCAGCCTCTCACAGTAG,7.53
13,TCCTCTGGAGGCCAAAAGTAGGGAGGAGGG,-1.37
14,CAAAGGACAAATCTCACTGATAGTCTCCTA,-1.28
15,TAGATCAGCTTTCAACACTCTGGATTCCTC,-1.36
16,CCTGACCCCCTCCTCACCCCACTTTGGTTC,4.37
17,GACAAACAGACTTCACACTAGAAGACTCAT,-1.32
18,GCTACAGAGCTCAGATTTCAAGGTGAGCAG,-0.986
19,AATGGAATACTTGCCTAAGGTCAATGTCCT,3.89
20,TTTTTGTTCCACTGGTAACTAGGTTAATGT,1.73
21,ACAGCCTTTTCTTATCAGGCTCATTCTAAC,-0.846
22,TAGAACGCTGACTCCGGGGAGCAGGCAGAG,-1.28
23,GGAATGCAGTAGTGCGATGATCATGGCTCA,-1.08
24,TCAAGCCTTTGACTCGAATGCGAACCTGTC,0.675
25,CTAGAGCCAAGGAAGAGAAGACCAAACAAC,-1.24

row,Sequence,binding signal (log2 normalized intensity)
1,TTTGATCTCTTATCACCCTGAACAGTGGCT,-0.15
2,CATGTAGTCACATACCTATGCAAACAGCGC,-1.23
3,AGGACAGCCAGGCAGTCGGGAAATTCCAGC,-1.15
4,GAGACCTGTTCTGTTCCCTGGACTCAGCTC,2
5,TTCTTGAGCTACCGCCTGAACCTTGGATCT,4.48
6,GCGGGCCGGGAGGGGGACGCTTTCTGGCGC,-1.52
7,TAAATAAAGTGGTAGCCCACAATCAGTCTG,-1.28
8,CCACTGTTCTCTCTAGAGAGAACAGATCTT,0.526
9,TTAGACATGTTTACTTTTGCAAGGTTTGTT,1.34
10,TCCTTCAAAGATTGTGAGACAAGAGAAGAG,-1.36
11,AAATCAGAACAGTCTGTGACTTGATCTTTG,3.2
12,TGCAGCAAAACTTTAGGACTTTGAACCTTG,9.2
13,TCGGGGCCTGGTCTGCACTCCAGGAAAGAC,-0.598
14,CTGGCAAATGAAATGTAATCAGCAAGTTTT,-0.901
15,AAGGCTGACCACGGGGGCCGCTCTCCCTCC,-1.32
16,CAGGACGTGAAGCAACTAGAACTCTCAGAC,-1.35
17,CCACTGGTTTGCACACACCAAAGCCCAAGG,-1.33
18,CCCTTGGTGTTTAAACACATTTTTTTTTTT,1.5
19,TGGGTCGTTGGTGCTCCCCCACCCTGTGTC,4.44
20,CCATGCAAGTTCCCACAGAGCCCACCATGT,-1.39
